PubChem BioAssay (NCI)
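Briefly, cells in 96-well plates were exposed to five compound concentrations for 48 h, and endpoints were estimated by linear interpolation. At the GI50, growth is halved. TGI: total growth inhibition.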

Test system: NCI-H322M lung
Test: NCI tumour cell line growth inhibition, 48 h

Clc1ccc2c(NCCNC34CC5CC(CC(C5)C3)C4)ccnc2c1
GI50: 3.3 µM
TGI: 6.39 µM

Cn1cc(-c2cc(N)n3nc(-c4cn(C)c5ccccc45)cc3n2)c2cc(Br)ccc21
GI50: 1.82 µM
TGI: 5.86 µM
